Our source for the enrichment ratio values is a collection of fitness landscapes (doi:10.1126/science.1257360).

The list shows a part of the results.

B1: PhoQ; a variant is named by its letters at X, in order, P23837 (parent)
chain: MKKLLRLFFPLSLRVRFLLATAAVVLVLSLAYGMVALIGYSVSFDKTTFRLLRGESNLFYTLAKWENNKLHVELPENIDKQSPTMTLIYDENGQLLWAQRDVPWLMKMIQPDWLKSNGFHEIEADVNDTSLLLSGDHSIQQQLQEVREDDDDAEMTHSVAVNVYPATSRMPKLTIVVVDTIPVELKSSYMVWSWFIYVLSANLLLVIPLLWVAAWWSLRPIEALAKEVRELEEHNRELLNPATTRELTSLVRNLNRLLKSERERYDKYRTTLTDLTHSLKTPLXXLQXXLRSLRSEKMSVSDAEPVMLEQISRISQQIGYYLHRASMRGGTLLSRELHPVAPLLDNLTSALNKVYQRKGVNISLDISPEISFVGEQNDFVEVMGNVLDNACKYCLEFVEISARQTDEHLYIVVEDDGPGIPLSKREVIFDRGQRVDTLRPGQGVGLAVAREITEQYEGKIVAGESMLGGARMEVIFGRQHSAPKDE

In this assay the parent is B1. The assay is described as follows: enrichment ratio after two sorts for PhoP signalling (ratio (wild type AVST 3.29)); higher = more functional. As to conditions: with PhoP (E. coli).
For the variant AYSQ, the enrichment ratio is no more than 0.25. With VPMW the figure was no more than 0.25; with RCSQ, no more than 0.25; with FAAM, no more than 0.25. The same measure for SNWP: no more than 0.25; for KQYP: no more than 0.25; for GRLK: no more than 0.25. With SVFD the figure was no more than 0.25; with AKMY, no more than 0.25. Turning to GLPR, the enrichment ratio is no more than 0.25. With QDGM the figure was no more than 0.25.

As to RCTC, the enrichment ratio was no more than 0.25. With FVME the figure was no more than 0.25. For ELRA, the enrichment ratio was no more than 0.25. Regarding VYGW, the enrichment ratio is no more than 0.25. With LDGD, the enrichment ratio was no more than 0.25. The same measure for NFDK: no more than 0.25; for NHND: no more than 0.25. The same measure for WAWC: no more than 0.25.

On to QMMK, for which the enrichment ratio is no more than 0.25. With EKLK the figure was no more than 0.25; with WDEH, no more than 0.25; with LNHH, no more than 0.25.

As to VNQD, the enrichment ratio was no more than 0.25. The same measure for ICFR: no more than 0.25. Turning to FACA, the enrichment ratio is no more than 0.25. With ATWC the figure was no more than 0.25; with GHFP, no more than 0.25; with HMSV, no more than 0.25. Consider HVKR, for which the enrichment ratio was no more than 0.25. The same measure for FLLP: no more than 0.25. With SNAP the figure was no more than 0.25; with TPGD, no more than 0.25.

As for FVFG, the enrichment ratio is no more than 0.25. With WTYH the figure was no more than 0.25. With IPKE the figure was no more than 0.25.

With FMSY, the enrichment ratio was no more than 0.25.

As for RFGC, the enrichment ratio was no more than 0.25. The same measure for NLYP: no more than 0.25; for MSAR: no more than 0.25.

Turning to MVTA, the enrichment ratio is no more than 0.25. On to NGPP, for which the enrichment ratio is no more than 0.25. In the case of VHNV, the enrichment ratio was no more than 0.25. The same measure for ECRD: no more than 0.25; for MECF: no more than 0.25; for VYCR: no more than 0.25.

As to EYRA, the enrichment ratio is no more than 0.25. With YEWF the figure was no more than 0.25; with YYTC, no more than 0.25. Consider PYMC, for which the enrichment ratio is no more than 0.25. With SQQW the figure was no more than 0.25. The same measure for GFTE: no more than 0.25; for ICPS: no more than 0.25. The same measure for GQYQ: no more than 0.25; for GEVG: 8.67; for FSSH: no more than 0.25. For the variant ICGT, the enrichment ratio was no more than 0.25. The same measure for SSWH: no more than 0.25. The same measure for FLWS: no more than 0.25.

With GNAT, the enrichment ratio is no more than 0.25. With ACAT the figure was 0.287; with WPAA, no more than 0.25.

For the variant AFSH, the enrichment ratio is no more than 0.25. With ATEP the figure was no more than 0.25; with NMPF, no more than 0.25.

Consider MHIW, for which the enrichment ratio is no more than 0.25. The same measure for GLTT: no more than 0.25. For QDEP, the enrichment ratio was no more than 0.25. As for FPFG, the enrichment ratio is no more than 0.25. With KTTT, the enrichment ratio is no more than 0.25. The same measure for LKMM: no more than 0.25. With HNHL the figure was no more than 0.25; with AMYN, no more than 0.25.

As for RENC, the enrichment ratio is no more than 0.25.

Consider SSNC, for which the enrichment ratio is no more than 0.25. With GHWI the figure was no more than 0.25. With ELNL, the enrichment ratio is no more than 0.25. The same measure for FFFC: no more than 0.25. With LLTN the figure was 0.383; with YPNT, no more than 0.25; with INHM, no more than 0.25. With IFFQ the figure was no more than 0.25; with AHIN, no more than 0.25. Take WHCQ: the enrichment ratio was no more than 0.25. The same measure for EHLI: no more than 0.25; for VKDL: no more than 0.25. With IWGL the figure was no more than 0.25; with QCKW, no more than 0.25; with RAPN, no more than 0.25.

As for FHAD, the enrichment ratio is no more than 0.25. The same measure for LTAE: no more than 0.25; for MDDS: no more than 0.25; for MPYW: no more than 0.25.

On to LKLM, for which the enrichment ratio was no more than 0.25. The same measure for FPQL: no more than 0.25; for YLIF: no more than 0.25; for MNTH: no more than 0.25.

As for YGPI, the enrichment ratio is no more than 0.25. With MGPY the figure was no more than 0.25.

As for IDDY, the enrichment ratio is no more than 0.25. On to IAFD, for which the enrichment ratio is no more than 0.25. The same measure for PWET: no more than 0.25. PDSF: the enrichment ratio was no more than 0.25.

Regarding EVND, the enrichment ratio was no more than 0.25. On to TPAH, for which the enrichment ratio is no more than 0.25. In the case of IAVP, the enrichment ratio was no more than 0.25.

Take IVMN: the enrichment ratio was no more than 0.25. Take HWKF: the enrichment ratio was no more than 0.25. With EAII the figure was no more than 0.25.

For YYMN, the enrichment ratio is no more than 0.25.

For NFYG, the enrichment ratio is no more than 0.25.

On to VMGT, for which the enrichment ratio was no more than 0.25. The same measure for SLDK: no more than 0.25; for DAHL: 0.257; for RIVV: no more than 0.25. Consider YAWF, for which the enrichment ratio is no more than 0.25. In the case of QCGW, the enrichment ratio is no more than 0.25. With LMDY the figure was no more than 0.25.

As for DTRK, the enrichment ratio is no more than 0.25. The same measure for MELQ: 3.81; for KMSC: no more than 0.25. Regarding ICDQ, the enrichment ratio is no more than 0.25. With SIVH, the enrichment ratio was determined as 9.21. FLTI: the enrichment ratio was no more than 0.25.

QVKL: the enrichment ratio was no more than 0.25. With RIFK the figure was 1.58; with GPPA, no more than 0.25; with YLIY, no more than 0.25. With WLLS the figure was no more than 0.25. For the variant LWDH, the enrichment ratio is no more than 0.25. With NDLA the figure was no more than 0.25; with YPSM, 1.37; with DCCK, no more than 0.25. The same measure for SNWG: no more than 0.25. The same measure for FFWF: no more than 0.25; for SVRN: no more than 0.25; for TCQR: 4.53. As for LMGV, the enrichment ratio was no more than 0.25. Consider PWDY, for which the enrichment ratio was no more than 0.25.

Regarding VGTC, the enrichment ratio is no more than 0.25. With PQYF the figure was no more than 0.25; with RRYL, no more than 0.25; with CACW, no more than 0.25. With FVEL the figure was no more than 0.25; with EGVN, no more than 0.25.

For the variant SYSY, the enrichment ratio was no more than 0.25. With ASIQ the figure was 5.62; with WTTG, no more than 0.25; with VYNS, no more than 0.25. NRRG: the enrichment ratio was no more than 0.25.

For the variant VIGL, the enrichment ratio is no more than 0.25. KFMN: the enrichment ratio is no more than 0.25. The same measure for QSNG: 5.88.
